Test results: the supplement of paper PMC3334620
In all, about 33,000 sequences were measured (“E-score (-0.5 to 0.5)”: median about -0.035, highest 2% from about 0.35 on). This is one part of the list.

biological target: T1, Pdr3 (UniProt P33200); assay: PBM E-score (8-mer binding enrichment) (E-score (-0.5 to 0.5)); higher = stronger / more preferred TF binding; most listed sequences are background and not binding sites; details: protein concentration: 200 nM; construct: GST-full length
T1 sequence: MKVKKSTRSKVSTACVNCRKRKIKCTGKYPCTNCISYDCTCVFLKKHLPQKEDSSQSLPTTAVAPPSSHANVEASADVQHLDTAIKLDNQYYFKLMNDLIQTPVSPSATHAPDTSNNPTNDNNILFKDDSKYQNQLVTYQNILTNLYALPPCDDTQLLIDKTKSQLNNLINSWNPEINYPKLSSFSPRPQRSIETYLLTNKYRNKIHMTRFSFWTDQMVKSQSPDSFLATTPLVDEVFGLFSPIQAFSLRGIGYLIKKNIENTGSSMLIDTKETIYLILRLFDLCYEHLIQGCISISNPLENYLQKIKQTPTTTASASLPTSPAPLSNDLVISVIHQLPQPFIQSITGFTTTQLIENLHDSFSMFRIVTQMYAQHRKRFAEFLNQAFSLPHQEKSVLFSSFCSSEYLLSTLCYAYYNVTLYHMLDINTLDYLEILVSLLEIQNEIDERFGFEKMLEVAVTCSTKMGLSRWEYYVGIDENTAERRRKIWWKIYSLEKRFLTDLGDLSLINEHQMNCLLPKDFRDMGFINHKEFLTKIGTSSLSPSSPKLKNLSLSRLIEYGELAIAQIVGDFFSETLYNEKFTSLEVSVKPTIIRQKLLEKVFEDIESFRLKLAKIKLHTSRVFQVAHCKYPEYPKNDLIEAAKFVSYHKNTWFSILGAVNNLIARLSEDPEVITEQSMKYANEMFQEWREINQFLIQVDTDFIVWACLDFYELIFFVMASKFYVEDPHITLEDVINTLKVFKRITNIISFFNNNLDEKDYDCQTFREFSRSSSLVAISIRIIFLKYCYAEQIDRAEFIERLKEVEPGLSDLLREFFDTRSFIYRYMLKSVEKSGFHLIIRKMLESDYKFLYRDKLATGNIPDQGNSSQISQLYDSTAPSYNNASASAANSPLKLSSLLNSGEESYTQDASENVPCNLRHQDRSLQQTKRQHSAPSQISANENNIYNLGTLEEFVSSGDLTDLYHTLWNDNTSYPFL
Description: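 Universal 'all 10-mer' protein binding microarrays (Agilent AMADID 015681) probed with GST-tagged S. cerevisiae TFs (full-length or DBD) made by in vitro transcription/translation (PURExpress), about 100-200 nM. Bound TF was detected with fluorescent anti-GST. Each ungapped 8-mer (which stands for itself and its reverse complement) is scored by the PBM enrichment score (E-score), a modified Wilcoxon-Mann-Whitney statistic from -0.5 to +0.5, computed with the Universal PBM Analysis Suite. Scale: above 0.35 generally sequence-specific binding.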

Sequence | PBM E-score
CCCCCCGG | 0.132
GCCAATTA | -0.0574
ACGTTTAG | -0.205
CGTGTGTC | 0.051
ATGCTTCG | 0.118
ACAGGATC | -0.21
CCCAATTA | -0.0104
CCACATGA | -0.115
GAAGTGAC | -0.126
CGAAGGGC | 0.0348
CTCACGTC | 0.00422
CGGGACTA | 0.208
GAAACGAA | 0.0452
AAAATATG | 0.184
GGCCTTAC | -0.00456
CGGGCGGA | 0.383
AAAGATAA | -0.0995
CTTATCAC | -0.103
GGATGCGA | -0.114
AGGAAACT | -0.0843
ACCCTATA | -0.214
ATTCCATC | 0.163
CTACAGGA | -0.206
AAATGATC | 0.0429
CGGGCTCC | 0.21

Sequence | PBM E-score
CAGGACCG | -0.0353
ATCTGGTC | -0.051
TGATGCAA | 0.0131
GACAAACA | 0.0268
TGCCGACA | 0.123
CCATTGTA | 0.0567
TACAAGCA | 0.0636
AATGCACT | -0.123
ACGTATAT | -0.138
CCCGAAAC | 0.134
ATGATAGC | 0.0662
GAAAGTCA | 0.00875
AAAGCCCA | 0.0889
AAGAATTA | -0.0831
ACCCGGAA | 0.456
CTGAAGGC | -0.334
TATTTAGA | -0.00689
GTCTAGAA | -0.0614
CATCCCCG | 0.354
CAAAATTC | 0.234
GCACCAGA | -0.12
AGCCGCAA | 0.0204
CCGCTTTC | 0.185
ACAATAAT | 0.104
CGACCTCG | 0.135

Sequence | PBM E-score
TCACGAGA | -0.177
ACTGAAGC | -0.064
CACTCCTG | -0.115
GCGTTAGA | 0.00545
AATTAACG | 0.0424
ATTACCTC | -0.0445
AACGCGAC | -0.0622
ATGCAAAG | -0.0888
GGGCTTCA | 0.0122
ATAGTCAG | -0.177
CAAACGCG | 0.0879
AGTACGCG | 0.032
GACTCGGC | 0.0537
GCGTAATA | -0.0851
TATCCCCA | 0.0301
GAATAGTC | -0.00574
GTTCAATA | -0.0115
AAGATCCA | 0.0854
CTTTCTTA | -0.11
CTTCCGGA | 0.451
GTAAACAA | -0.0232
CGCCATCC | 0.0558
ATGGGAAA | -0.0929
CACTCCAA | -0.0406
CAAAAGTC | -0.0529

Sequence | PBM E-score
ATAGCTCC | -0.198
GCTATACA | -0.126
ACCATAGT | 0.14
GTGTCTTA | -0.183
AATTTACA | -0.353
AGTATACG | -0.127
CCCCTTAC | -0.128
CAATAGCA | -0.11
ACTACGCC | -0.00804
ATAACATC | -0.0859
GCTTACGA | -0.292
CGTCTCAA | 0.0219
AAAGAAAA | -0.00648
GTAATAGA | -0.0517
ATTCTAAC | -0.187
CCCTCCCA | 0.125
AACAAGTA | -0.229
AACCTCTG | -0.0897
TGGCGCCA | 0.154
ACTGGGTC | -0.203
GGAAAGAA | 0.222
ATGGTATA | -0.0858
TGCGCCAA | 0.053
CGGGGTCA | 0.132
CCTGGGAC | -0.266

Sequence | PBM E-score
ATATAAAC | -0.0835
CGCACGGC | 0.142
AGTCGGCC | 0.13
GGGTTTAA | -0.0139
GTTGCGAA | -0.0664
TCGGGCAA | 0.0636
AGACAGCG | -0.199
GTCGGTAA | 0.0395
ACATTCAG | -0.133
AGCCAGTA | 0.041
AAATAAAA | -0.0324
TAGATATA | 0.128
GAGGAATC | 0.0228
AATACAAC | 0.0861
AATAACCA | -0.185
CTTACCAC | -0.138
ATGATTAC | -0.0869
AGCTCCTC | -0.195
CCGTGCCC | 0.148
AAACGAGT | 0.0128
AACGATGC | -0.199
AGTTTCAA | -0.0893
CTCAATGC | -0.133
ATGTTGAA | 0.0485
CGACTTGC | -0.089

Sequence | PBM E-score
TACAGCTA | -0.249
CGTGAAAC | -0.0489
ACAATGAT | -0.0614
GTGAGGAA | -0.0729
ACGCAAAT | 0.0221
TCCACGAA | -0.0449
GACATTAA | -0.00233
CCCCACGA | -0.0538
CATGAGGA | -0.0207
GCGTCGTA | 0.0914
CCTGCAGA | -0.0209
AACCGCCC | 0.0936
CACAATGC | 0.0401
GTTTGTAA | -0.0823
CCCAGATC | -0.145
ACATTCTG | -0.243
CAAGAGTC | -0.209
GCATAACC | 0.0518
ATACCCGG | 0.339
ATGGAAAC | 0.00355
CACTGGGG | -0.123
CAGACAAA | -0.0282
GACTGCCC | -0.0371
GATGGAGC | -0.0831
AAGGCTAA | -0.151

Sequence | PBM E-score
GAAAGCAC | -0.0195
ATGAATCG | -0.0795
GCAGTGGA | -0.147
ACACTTAG | -0.0111
AGCGGGAC | 0.185
GATTACGA | 0.00113
AAAGCGTT | -0.117
CCCGTAGG | -0.111
CGAGTTAG | -0.128
GACAGGGA | -0.115
CGCTCCCA | 0.0353
CCTAACTA | -0.0709
CTACACAA | 0.0338
GGCACCCA | 0.00772
ATAGCCGG | 0.283
CCTCCATA | -0.253
CGAAGACA | -0.0157
AGGCACTG | -0.027
CCTGCAAG | -0.195
TGACGGAA | 0.445
AGAGCCCT | -0.197
AACGCGCT | 0.0299
